In all, about 310,000 compounds went through this assay and about 2,200 (0.71%) showed an effect of 50% or more. The effect is printed as a negative number. The list shows a part of the results.
target: human ether-à-go-go-related gene (hERG) potassium channel (human, UniProt Q12809); experiment: primary screen, population patch clamp on CHO cells stably expressing hERG
Sequence (Q12809 whole entry, looked up): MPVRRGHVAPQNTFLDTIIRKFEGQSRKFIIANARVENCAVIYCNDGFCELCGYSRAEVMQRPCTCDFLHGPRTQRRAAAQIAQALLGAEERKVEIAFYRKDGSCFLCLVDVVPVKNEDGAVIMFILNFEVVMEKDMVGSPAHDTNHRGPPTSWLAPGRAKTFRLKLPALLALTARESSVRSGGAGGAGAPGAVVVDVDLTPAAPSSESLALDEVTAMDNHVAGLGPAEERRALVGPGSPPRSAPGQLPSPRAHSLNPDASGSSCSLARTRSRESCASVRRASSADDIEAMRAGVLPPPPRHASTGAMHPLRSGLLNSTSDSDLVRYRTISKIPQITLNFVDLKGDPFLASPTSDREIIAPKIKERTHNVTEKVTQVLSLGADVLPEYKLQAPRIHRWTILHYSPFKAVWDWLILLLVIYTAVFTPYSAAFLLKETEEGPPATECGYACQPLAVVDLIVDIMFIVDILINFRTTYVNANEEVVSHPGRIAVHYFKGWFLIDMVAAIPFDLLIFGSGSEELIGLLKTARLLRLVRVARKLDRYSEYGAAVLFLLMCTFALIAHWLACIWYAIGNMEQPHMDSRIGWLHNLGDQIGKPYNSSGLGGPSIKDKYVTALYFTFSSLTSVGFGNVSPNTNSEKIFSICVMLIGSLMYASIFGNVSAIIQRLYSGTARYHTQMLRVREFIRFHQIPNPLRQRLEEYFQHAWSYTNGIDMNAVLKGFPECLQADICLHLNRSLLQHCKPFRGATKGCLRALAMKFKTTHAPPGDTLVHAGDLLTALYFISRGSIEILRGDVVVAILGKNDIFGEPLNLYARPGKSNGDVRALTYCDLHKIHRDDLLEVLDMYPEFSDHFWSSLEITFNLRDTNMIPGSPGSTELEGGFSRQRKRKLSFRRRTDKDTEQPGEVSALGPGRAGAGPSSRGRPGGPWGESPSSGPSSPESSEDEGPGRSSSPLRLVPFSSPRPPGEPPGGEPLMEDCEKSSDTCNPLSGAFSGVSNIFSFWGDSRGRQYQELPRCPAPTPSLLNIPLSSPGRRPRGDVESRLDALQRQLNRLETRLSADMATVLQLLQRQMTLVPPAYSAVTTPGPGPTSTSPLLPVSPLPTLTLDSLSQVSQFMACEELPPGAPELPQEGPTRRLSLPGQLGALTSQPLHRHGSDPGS

SMILES | hERG current change (%, negative = inhibition) at 1uM [%]
COC(=O)c1cc(S(=O)(=O)NCCc2ccc(C)cc2)c[nH]1 | 3.18
Cc1cccc(C)c1NC(=O)C(NC=O)c1ccccc1Cl (centres unmarked) | 5.06
Cn1c(=O)oc2cc(S(=O)(=O)N3CCCC(C(=O)N4CCc5ccccc5C4)C3)ccc21 (centres unmarked) | 6.61
C/C(=N\OCC(=O)Nn1c(=O)[nH]c2ccccc2c1=O)c1cccs1 | -5.65
CCCc1cc(C(=O)Nc2ccc(F)c(Cl)c2)no1 | 6.56
CSc1nc2ccccc2c(=O)n1N | 15.6
Cc1ccc2cc(S(=O)(=O)NCCCC(=O)O)ccc2c1 | 11.8
COCCN1C(=O)N(c2cccc(OC)c2)C(=O)C1CC(=O)Nc1ccc(Cl)cc1 (centres unmarked) | 9.61
Cc1c(Cl)cccc1NC(=O)COC(=O)CN1C(=O)NC(C)(C)C1=O | 9.16
CCOC(=O)/C(C#N)=N/Nc1c(C)n(C)n(-c2ccccc2)c1=O | 15.3
COc1ccc(C(CNC(=O)c2cccc(S(=O)(=O)Nc3ccccc3Cl)c2)N2CCOCC2)cc1 (centres unmarked) | 8.19
CC(C)c1ccc(CNC(=O)C2CCCN2S(=O)(=O)c2ccccc2)cc1 (centres unmarked) | 15.3
Cc1cc(=O)oc2c(CN(C)Cc3ccccc3)c(O)ccc12 | 1.88
CCOC(=O)/C(=N/Nc1ccc(Cl)cc1)Sc1nnnn1-c1ccc(C)cc1 | 17.7
CCC(=O)Nc1ccc(NC(=O)c2ccccc2)nc1 | -4
COc1cccc(CNc2ccc(F)c(Cl)c2)c1OC | 11.3
CCCS(=O)(=O)C(=C(Nc1ccc(OC)cc1)Nc1ccc(OC)cc1)S(=O)(=O)CCC | 9.08
COc1ccc(C(=O)CC(=O)C(=O)Nc2cccc(C(C)=O)c2)cc1 | 15.4
O=C(c1ccccc1)N1CCN(C(=O)N2CCCCC2)CC1 | 15.4
CCOc1cccc(C2C(C#N)=C(N)Oc3cc(C)oc(=O)c32)c1OCC (centres unmarked) | -1.41
CCCC(=O)NC(Oc1ccc(OC)cc1)C(Cl)(Cl)Cl (centres unmarked) | -3.93
CCC(C)[C@H](NC(=O)NCc1ccc(S(N)(=O)=O)cc1)C(=O)OC (some centres unmarked) | 0.835
Nc1nc(SCC(=O)NC2CCCC2)[nH]c(=O)c1NC(=O)c1cccs1 | 5.17

SMILES | hERG current change (%, negative = inhibition) at 1uM [%]
O=C1C2CCCN2C(c2ccccc2)N1c1ccccn1 (centres unmarked) | 11.9
Cc1cccc(NC(=S)NC2CC3CCCC(C2)N3Cc2cccs2)c1C (centres unmarked) | -6.58
CCC(c1nnc(SCC(=O)Nc2ccc(C(C)=O)cc2)n1C1CCCCC1)N(C)C (centres unmarked) | 0.027
C=CCN(C(=O)c1ccccn1)C(C(=O)NCc1ccccc1)c1ccccc1F (centres unmarked) | 12.1
C=CCc1ccc(OCCOCCOc2ccc(C)cc2[N+](=O)[O-])c(OC)c1 | 2.58
N#CCCNC(=O)Cn1c(COc2ccc(Cl)cc2)nc2ccccc21 | -7.71
Cc1ccc(NC(=O)c2ccccn2)c(Br)c1 | 13.7
CCC(C(=O)Nc1ccc(Cl)cc1)N1CCCC1=O (centres unmarked) | 15
O=C(COC(=O)c1ccc(F)c(S(=O)(=O)N2CCOCC2)c1)NC1CCCCC1 | 9.85
Cc1cccn2c(=O)c(/C=N/O)c(NCc3ccccc3)nc12 | 9.29
O=C(c1ccncc1)C12CN3CN(CN(C3)C1)C2 | 8.51
CC1CC(C)(C)CC2(C1)NC(=O)N(CC(=O)OCc1ccc(Br)cc1)C2=O (centres unmarked) | 2.21
CCOc1ccc(S(=O)(=O)NC(C)(C)C)cc1-c1nc2c(C(C)(C)C)nn(C)c2c(=O)[nH]1 | 9.15
CCCCNC(=O)C1CCCN(S(=O)(=O)c2c(C)noc2/C=C/c2cccs2)C1 (centres unmarked) | -3.22
Cc1ccc(NC(=O)CCCCCN2C(=O)[C@@H]3Cc4ccccc4CN3C2=O)c(Cl)c1 | 9.09
COC(=O)c1ccc(NC(=O)c2c(Br)cnn2C)cc1 | 14.1
CCCCC(CC(C)O)c1n[nH]c(=S)n1-c1ccccc1 (centres unmarked) | 4.45
COc1ccccc1CNc1ccc(CNc2ncn[nH]2)cc1 | 10.5
CC(CCc1ccccc1)NC(=O)C(=O)NCCc1ccccc1 (centres unmarked) | -10.2
CCc1cc(=O)oc2c(C)c(OC(C)C(=O)NCC3CCC(C(=O)O)CC3)ccc12 (centres unmarked) | 18
CC(C)C(NC(=O)C(C)N1C(=O)c2ccccc2C1=O)c1ccccc1 (centres unmarked) | 17.3
CC(=O)Nc1sc2c(c1CN1CCCC1)CCCC2 | 10.4
Cc1ccc(CNC(=O)C2CCCN(c3nc4ccccc4o3)C2)cc1 (centres unmarked) | 8.27

SMILES | hERG current change (%, negative = inhibition) at 1uM [%]
O=C(COC(=O)c1ccc[nH]c1=O)NCC12CC3CC(CC(C3)C1)C2 | 6.89
Cc1ccc(NC(=O)Nc2nnc(-c3ccncc3)s2)cc1 | 6.26
COCCCNC(=S)Nc1cccc2ncccc12 | 13
COc1ccccc1OCCCCOc1ccccc1C(C)=O | 12.5
Cc1nc(-c2ccccc2)cc(N2CCCC2)n1 | -6.1
CCOC(=O)C1(CCCc2ccccc2)CCN(C(=O)CCc2cnccn2)CC1 | -16.2
CCc1cccc(C)c1NC(=S)NCC(c1cccnc1)N1CCOCC1 (centres unmarked) | 7.34
CCOC(=O)c1c(NC(=O)CSc2nnnn2-c2ccccc2OCC)sc2c1CC(C)(C)NC2(C)C | -20.3
COc1ccc(-c2nc(CS(=O)(=O)CC(=O)NCCc3cc(OC)ccc3OC)c(C)o2)cc1 | -2.88
CC1=CC(C)(C)NC(=S)N1c1cc(C)cc(C)c1 | -0.0536
CC1(C)Cc2c(C#N)c(NCc3ccco3)nc(-c3ccco3)c2CO1 | -0.837
COc1ccc(C(=O)Oc2cccc3cccnc23)cc1[N+](=O)[O-] | 5.14
Cc1cc(=O)oc2c(C(=O)/C=C/c3ccccc3)c(O)ccc12 | 3.94
CC(C)CCN1CC(=O)N2Cc3[nH]c4ccccc4c3C[C@H]2C1=O | 16.1
CC(C)NC(=O)Cn1c(SCC(=O)N2CCc3ccccc3C2)nc2ccccc21 | 4.07
O=c1c(C=NCC2CCCO2)c(-c2ccccc2)[nH]n1-c1ccc([N+](=O)[O-])cc1 (centres unmarked) | 5.93
CCCn1c(N)c(N(CCOC)C(=O)CSCC(=O)Nc2ccc(OC)cc2)c(=O)[nH]c1=O | 7.32
COC(=O)C1C(O)C(C)C(O)C(C)/C=C\C=C(/C)C(=O)Nc2c(C)c(OC(C)=O)c3c(c2O)C(=O)C(C)=C2OCOC(=C23)/C(C)=C/C(C)(O)C(O)C(C)C1O (centres unmarked) | 9.05
C=CCc1ccccc1OCC(=O)N/N=C/c1ccccc1OCC | 5.01
CC(C)(C)c1ccc(CCC(CC(=O)O)CC(=O)O)cc1 | -0.528
Cc1cc(CSC(=N)N)c(CSC(=N)N)cc1C | 2.96
CCC(=O)Nc1c2c(nn1-c1ccccc1)CSC2 | 15.7
COc1cc(/C=N/NC(=O)CNC(=O)c2ccc3c(c2)OCCO3)ccc1O | 6.33

SMILES | hERG current change (%, negative = inhibition) at 1uM [%]
O=C(C1CC1)N1CCc2cc(S(=O)(=O)N3CCOCC3)ccc21 | 2.52
CC(=O)N1CC[n+]2c(-c3ccc([N+](=O)[O-])cc3)csc21.[Br-] | 2.01
CCSc1ccc([C@@H]2[C@H]3C(=O)N(CC)C(=O)[C@H]3[C@]3(C(=O)OC)CCCCN23)cc1.O=C(O)C(F)(F)F | 6.46
c1ccc2[nH]c(NCc3ccc4c(c3)OCO4)nc2c1 | 11.5
Cc1nc2ccccc2c(=O)n1-c1ccc(F)c(NS(=O)(=O)c2ccccc2F)c1 | 25.9
Cc1nn2c(N)c(C#N)cnc2c1-c1ccccc1 | 7.98
Cn1nccc1C(=O)NCCN1C(=O)OC(C)(C)C1(C)O (centres unmarked) | -2.79
O=C(N=C1SC2CS(=O)(=O)CC2N1c1cc(Cl)ccc1Cl)C1CC1 (centres unmarked) | 9.34
C=CCn1cc(C(=O)NCCCOC)c(=O)c2cc(S(=O)(=O)N(CC)CC)ccc21 | -6.18
CC(c1nnc(SCC(=O)N2CCc3ccccc32)n1-c1ccc(Cl)cc1)N(C)C (centres unmarked) | 7.08
CCc1cccc(C)c1NC(=O)CN(C)Cc1ccccc1F.O=C(O)C(=O)O | -1.84
COC(=O)c1ccc(S(=O)(=O)c2ccc([N+](=O)[O-])cc2)cc1 | 4.05
CSc1ncc(Cl)c(C(=O)O)n1 | 19.7
Cc1cc(C)c(C)c(OCCCn2ccnc2)c1 | 2.77
CN(C)c1nc2n(c(=O)n1)CCO2 | 18.4
Cc1cccc(OCC(=O)OC(C)C(=O)Nc2ccc(S(=O)(=O)N3CCCCC3)cc2)c1 (centres unmarked) | 9.99
COc1ccc(C(C(=O)NCc2ccccc2)N(C(=O)c2snc(C(N)=O)c2N)c2ccccc2OC)cc1OC (centres unmarked) | -6.78
Fc1ccc(-c2cc(-c3nnc4n3CCCCC4)c3ccccc3n2)cc1 | -23.2
CCCCN(CCCC)C(=O)c1cc(Cl)ccc1[N+](=O)[O-] | 10.4
CC(C1CC2CCC1C2)N1CC(O)=C(c2nc3ccccc3[nH]2)C1=N (centres unmarked) | 7.7

Reference: publication PMC4336329 (PLoS ONE, 2015)
